# In the supplement of paper PMC5499739:
# The full ranking holds about 16,000 sequences; the median of “Z-score” is about -0.37, and the highest 2% start at about 3.1. This is one part of the list.
# Tested on: RBM10 RRM1-ZnF-RRM2 (GST-tagged construct)
# Assay: RNAcompete 7-mer binding Z-score; higher = stronger binding preference
# Procedure, shortened: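 Bound RNA was identified by microarray hybridisation after GST-tagged RBM10 constructs (20 pmol) had been mixed with 1.5 nmol of a designed pool of 241 399 RNAs up to 41 nt, transcribed from microarray-derived DNA templates. Binding ran for 30 min at 4°C in 1 ml Hepes pH 7.8 buffer with KCl, NaCl, glycerol, DTT, BSA and glutathione Sepharose beads, with four 2-min washes at 4°C afterwards. For every heptamer motif, a one-sided Z-score for enrichment was computed across the probes that contained it.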
row,Sequence,RNAcompete 7-mer binding Z-score
1,AAGUACU,-0.595
2,AAACGGU,1.03
3,UGGGGAU,3.05
4,CGUCGAG,0.0896
5,CCACUGA,-0.624
6,CAUAACG,-0.231
7,ACAACGU,-0.165
8,UCCUAAG,-0.657
9,CGGUAGA,1.01
10,CCGCCCA,-0.744
11,GCUAUUC,-0.595
12,GGAAUUG,1.9
13,AGGAUUC,-0.0816
14,GACUUUA,-0.77
15,AGAGGCA,0.421
16,CCUCGGG,0.0932
17,GCUUCUU,-0.817
18,CCCUUGG,-0.475
19,AGACGGG,1.4
20,UGUUGGU,0.472
21,GCAAGUC,-0.326
22,AUUGGUA,1.05
23,AACUCAC,-0.715

row,Sequence,RNAcompete 7-mer binding Z-score
1,UUGUGGU,0.468
2,GAGGUAU,1.88
3,GGCGGAA,2.01
4,UCUGACC,-0.806
5,GCUUAAC,-0.511
6,CUCGCGA,-0.861
7,ACUAUAU,-0.544
8,ACUAGCU,-0.755
9,AACCUGC,-0.897
10,GUAAGAA,0.548
11,UGGCGUC,0.148
12,AGCUCGC,-0.519
13,GUGCGUC,-0.00877
14,GCUAUAA,-0.42
15,CGCGGGA,1.16
16,UCUAUGG,-0.402
17,AUCUUAC,-0.748
18,ACACCCA,-0.675
19,CGAGACG,0.301
20,AGUCUAU,-0.398
21,AGGUUGA,1.3
22,UGCCAAU,-0.453
23,CGAUUCA,-0.617

row,Sequence,RNAcompete 7-mer binding Z-score
1,UCGUGAU,-0.49
2,AAGCAGU,0.0677
3,CGGCCGA,-0.562
4,AAAACAG,0.243
5,CAAUGCG,0.381
6,ACUUGAA,-0.653
7,ACAGUGU,0.119
8,CGCAGCA,-0.195
9,CCACUUA,-0.985
10,CCCUGAA,-0.628
11,ACGUACU,-0.69
12,GGCGAUC,0.654
13,ACGGGCC,0.297
14,AGUGGAA,3.21
15,CCAACUC,-0.927
16,AGUUGAA,0.578
17,UCCUUCC,-0.657
18,UUGAUCC,-0.715
19,CCAUCGU,-0.686
20,UCGCUUC,-0.741
21,GCGAAUU,-0.111
22,UCAGCAG,-0.158
23,CCCCUAU,-0.85

row,Sequence,RNAcompete 7-mer binding Z-score
1,ACUCUAA,-0.686
2,ACGAAGC,0.0786
3,AAGAAGA,1.03
4,GAAGAAC,0.133
5,AGAGGUU,0.865
6,CCCGUAC,-0.679
7,CGAAAUG,0.0641
8,UCAGUUC,-0.748
9,UGCAUUG,-0.46
10,UUCGGUG,0.0386
11,GUCUAUA,-0.479
12,CGAUGUC,-0.704
13,GUGAGAG,1.85
14,UGGUAUA,0.858
15,UCAAUGG,1.28
16,CACUAUU,-0.872
17,AAUGUCG,-0.173
18,CUCCUUC,-0.846
19,AGACUCA,-0.978
20,UCUGCGC,-0.821
21,UGGCACU,0.075
22,AUCACUA,-0.639
23,CUAUUGC,-0.828

row,Sequence,RNAcompete 7-mer binding Z-score
1,GAAGAGU,1.26
2,UACAAAU,-0.49
3,GUCUUAA,-0.599
4,CAGUGUG,0.57
5,UCAGGUC,0.0604
6,CAAACAG,0.00944
7,CACCUAA,-0.828
8,AUACACU,-0.391
9,GCAGAAG,1.47
10,UUUAAGA,-0.413
11,GGUUAGU,1.6
12,AUUCUCG,-0.686
13,ACUGCGU,-0.508
14,AUAUGCU,-0.657
15,GUCACAU,-0.457
16,AUAGUCA,-0.333
17,CCUUUCC,-0.887
18,GGGGAGC,2.12
19,ACAGAGC,0.188
20,CCAAAAG,-0.275
21,UAGACCA,-0.409
22,UAGCAAG,0.217
23,GAUCCCG,-0.726

row,Sequence,RNAcompete 7-mer binding Z-score
1,UGCUUUG,-0.697
2,UCCUGAA,-0.766
3,UGAUUCG,-0.475
4,AUUUACC,-0.901
5,AUAGUAG,0.687
6,UCUUAUA,-0.821
7,UCCCCAC,-0.617
8,AGCGGCC,-0.304
9,CUCCACU,-0.894
10,AUCCUUG,-0.821
11,GAAAAUA,-0.00877
12,GACAUCU,-0.737
13,GUUGUCU,-0.708
14,UGCGCGG,0.545
15,AGAAGGC,1.17
16,UCCGGAC,-0.602
17,GAGAAAG,1.62
18,CGAGAAU,0.17
19,ACUAUUC,-0.905
20,AUCUAGG,0.199
21,GGCCCUG,-0.497
22,UGCUUAC,-0.679
23,GACAUUA,-0.329

row,Sequence,RNAcompete 7-mer binding Z-score
1,AGAGUGU,0.465
2,CGACACG,0.024
3,GUCCCAU,-0.522
4,GGAGGCC,1.01
5,UAAAUUG,-0.337
6,ACCCCCU,-0.755
7,AUGUUUC,-0.493
8,GCGUACU,-0.322
9,CCCCCAC,-0.282
10,AGUACUU,-0.624
11,CGGCGGU,0.931
12,ACAGGCC,0.159
13,CUUACUC,-0.81
14,GCGAAGG,2.16
15,CCACCCG,-0.584
16,CCCAGAU,-0.77
17,GCACUAG,-0.0161
18,GGGGUUU,2.36
19,AGCAGAC,0.13
20,AGUUAAU,-0.18
21,GUCUGGA,-0.147
22,AACCACU,-0.661
23,UAAGUUC,-0.475

row,Sequence,RNAcompete 7-mer binding Z-score
1,CAGCGUG,0.581
2,UCCGCAA,-0.755
3,AGUGGUA,1.92
4,CCGUGCA,-0.493
5,GAGGGUG,3.5
6,UUGAGUG,0.603
7,GGCAGUC,0.181
8,CCAGAAA,-0.694
9,CGCUAUC,-0.77
10,AGUUCCG,-0.519
11,CUCCACA,-0.613
12,GUGAAAC,0.217
13,CCCAUAC,-0.755
14,UGGAAGA,2.18
15,UAGGGCG,2.77
16,UAGUAGC,-0.0998
17,AGAUACC,-0.836
18,GUGUGCC,-0.0197
19,GGACGGU,2.15
20,CAUCCAA,-0.639
21,UUCCUAU,-0.908
22,UGAUCCU,-0.799
23,UGUUAAA,-0.544
